# Reference: the supplement of paper PMC8728848
# The list shows a part of the results.
# B1: R410P1E11 (Tachypleus tridentatus), TAL2_TACTR (protein)
# chain: MEKGTPPTHDSDNWMGRAKEIGNGGWDQFQFLFFDPNGYLYAVSNDKLYKASPPQSDTDNWIARATEIGSGGWSGFKFLFFHPNGYLYAVRGQRFYKALPPVSNQD
# Columns and labels:
# Test in all cases: glycan array binding signal (z-score within array); higher = stronger binding
# Details in all cases: glycan notation: IUPAC condensed, linker removed
# [1] = target: GlcNAc(b1-6)Gal(b1-4)GlcNAc
# In short: (§1)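 The Consortium for Functional Glycomics database supplied 3228 glycan arrays, of which those lacking an available protein sequence were dropped. The binding signal, a within-array Z-score, was averaged across arrays of the same protein sequence and across linkers. Negative scores can be read as non-binding.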
# GlcNAc(b1-6)GalNAc = target: GlcNAc(b1-6)GalNAc
# In short: as §1
# GlcNAc3Prop(b1-4)GlcNAc = target: GlcNAc3Prop(b1-4)GlcNAc
# In short: as §1
# Kdn(a2-3)Gal(b1-3)GlcNAc = target: Kdn(a2-3)Gal(b1-3)GlcNAc
# In short: as §1
# Kdn(a2-3)Gal(b1-4)GlcNAc = target: Kdn(a2-3)Gal(b1-4)GlcNAc
# In short: as §1
# [2] = target: Man(a1-2)Man(a1-2)Man(a1-3)Man
# In short: as §1
# [3] = target: Man(a1-2)Man(a1-2)Man(a1-6)[Man(a1-3)]Man
# In short: as §1
# Man(a1-2)Man(a1-3)Man = target: Man(a1-2)Man(a1-3)Man
# In short: as §1
# [4] = target: Man(a1-2)Man(a1-3)[Man(a1-2)Man(a1-6)]Man
# In short: as §1
# [5] = target: Man(a1-2)Man(a1-3)[Man(a1-2)Man(a1-6)]Man(a1-6)[Man(a1-2)Man(a1-2)Man(a1-3)]Man
# In short: as §1
# [6] = target: Man(a1-2)Man(a1-3)[Man(a1-2)Man(a1-6)]Man(a1-6)[Man(a1-2)Man(a1-2)Man(a1-3)]Man(b1-4)GlcNAc(b1-4)GlcNAc
# In short: as §1
# [7] = target: Man(a1-2)Man(a1-3)[Man(a1-6)]Man(a1-6)[Man(a1-2)Man(a1-3)]Man(b1-4)GlcNAc(b1-4)GlcNAc
# In short: as §1
# [8] = target: Man(a1-2)Man(a1-6)[Man(a1-3)]Man(a1-6)[Man(a1-2)Man(a1-2)Man(a1-3)]Man
# In short: as §1
# [9] = target: Man(a1-2)Man(a1-6)[Man(a1-3)]Man(a1-6)[Man(a1-2)Man(a1-2)Man(a1-3)]Man(b1-4)GlcNAc(b1-4)GlcNAc
# In short: as §1
# Man(a1-3)[Man(a1-6)]Man = target: Man(a1-3)[Man(a1-6)]Man
# In short: as §1
# [10] = target: Man(a1-3)[Man(a1-6)]Man(a1-6)[Man(a1-2)Man(a1-3)]Man(b1-4)GlcNAc(b1-4)GlcNAc
# In short: as §1
# [11] = target: Man(a1-3)[Man(a1-6)]Man(a1-6)[Man(a1-3)]Man
# In short: as §1
# [12] = target: Man(a1-3)[Man(a1-6)]Man(a1-6)[Man(a1-3)]Man(b1-4)GlcNAc(b1-4)GlcNAc
# In short: as §1
# [13] = target: Man(a1-3)[Man(a1-6)]Man(b1-4)GlcNAc(b1-4)GlcNAc
# In short: as §1
# Man(a1-6)Man = target: Man(a1-6)Man
# In short: as §1
# Man(b1-4)GlcNAc = target: Man(b1-4)GlcNAc
# In short: as §1
# Neu5Ac(a2-3)Gal = target: Neu5Ac(a2-3)Gal
# In short: as §1
# [14] = target: Neu5Ac(a2-3)Gal(b1-3)GalNAc
# In short: as §1
# [15] = target: Neu5Ac(a2-3)Gal(b1-3)GalNAc(b1-3)Gal(a1-4)Gal(b1-4)Glc
# In short: as §1
# [16] = target: Neu5Ac(a2-3)Gal(b1-3)GalNAc(b1-3)Gal(b1-4)GlcNAc
# In short: as §1
# [17] = target: Neu5Ac(a2-3)Gal(b1-3)GalNAc(b1-4)[Neu5Ac(a2-3)]Gal(b1-4)Glc
# In short: as §1
# [18] = target: Neu5Ac(a2-3)Gal(b1-3)GalNAc6S
# In short: as §1
# [19] = target: Neu5Ac(a2-3)Gal(b1-3)GlcNAc
# In short: as §1
# [20] = target: Neu5Ac(a2-3)Gal(b1-3)GlcNAc(b1-3)Gal(b1-3)GlcNAc
# In short: as §1
# [21] = target: Neu5Ac(a2-3)Gal(b1-3)GlcNAc6S
# In short: as §1
# [22] = target: Neu5Ac(a2-3)Gal(b1-3)[Fuc(a1-4)]GlcNAc
# In short: as §1
# [23] = target: Neu5Ac(a2-3)Gal(b1-3)[Fuc(a1-4)]GlcNAc(b1-3)Gal(b1-4)[Fuc(a1-3)]GlcNAc
# In short: as §1
# [24] = target: Neu5Ac(a2-3)Gal(b1-3)[Neu5Ac(a2-3)Gal(b1-4)]GlcNAc
# In short: as §1
# [25] = target: Neu5Ac(a2-3)Gal(b1-3)[Neu5Ac(a2-6)]GalNAc
# In short: as §1
# Neu5Ac(a2-3)Gal(b1-4)Glc = target: Neu5Ac(a2-3)Gal(b1-4)Glc
# In short: as §1
# [26] = target: Neu5Ac(a2-3)Gal(b1-4)GlcNAc
# In short: as §1
# [27] = target: Neu5Ac(a2-3)Gal(b1-4)GlcNAc(b1-2)Man(a1-3)[GlcNAc(b1-2)Man(b1-4)GlcNAc(b1-2)Man(a1-6)]Man(b1-4)GlcNAc(b1-4)GlcNAc
# In short: as §1
# [28] = target: Neu5Ac(a2-3)Gal(b1-4)GlcNAc(b1-2)Man(a1-3)[Neu5Ac(a2-6)Gal(b1-4)GlcNAc(b1-2)Man(a1-6)]Man(b1-4)GlcNAc(b1-4)GlcNAc
# In short: as §1
# [29] = target: Neu5Ac(a2-3)Gal(b1-4)GlcNAc(b1-3)Gal(b1-3)GlcNAc
# In short: as §1
# [30] = target: Neu5Ac(a2-3)Gal(b1-4)GlcNAc(b1-3)Gal(b1-4)GlcNAc
# In short: as §1
# [31] = target: Neu5Ac(a2-3)Gal(b1-4)GlcNAc(b1-3)Gal(b1-4)GlcNAc(b1-3)Gal(b1-4)GlcNAc
# In short: as §1
# [32] = target: Neu5Ac(a2-3)Gal(b1-4)GlcNAc(b1-3)Gal(b1-4)[Fuc(a1-3)]GlcNAc
# In short: as §1
# [33] = target: Neu5Ac(a2-3)Gal(b1-4)GlcNAc(b1-6)[Gal(b1-3)]GalNAc
# In short: as §1
# [34] = target: Neu5Ac(a2-3)Gal(b1-4)GlcNAc(b1-6)[Neu5Ac(a2-3)Gal(b1-3)]GalNAc
# In short: as §1
# [35] = target: Neu5Ac(a2-3)Gal(b1-4)GlcNAc6S
# In short: as §1
binder,measurement,setting,value
B1,glycan array binding signal (z-score),[1],0.308
same,glycan array binding signal (z-score),GlcNAc(b1-6)GalNAc,-0.469
same,glycan array binding signal (z-score),GlcNAc3Prop(b1-4)GlcNAc,-0.254
same,glycan array binding signal (z-score),Kdn(a2-3)Gal(b1-3)GlcNAc,-0.101
same,glycan array binding signal (z-score),Kdn(a2-3)Gal(b1-4)GlcNAc,-0.331
same,glycan array binding signal (z-score),[2],0.137
same,glycan array binding signal (z-score),[3],0.196
same,glycan array binding signal (z-score),Man(a1-2)Man(a1-3)Man,-0.568
same,glycan array binding signal (z-score),[4],-0.225
same,glycan array binding signal (z-score),[5],-0.751
same,glycan array binding signal (z-score),[6],0.235
same,glycan array binding signal (z-score),[7],-0.141
same,glycan array binding signal (z-score),[8],0.394
same,glycan array binding signal (z-score),[9],-0.45
same,glycan array binding signal (z-score),Man(a1-3)[Man(a1-6)]Man,-0.45
same,glycan array binding signal (z-score),[10],0.246
same,glycan array binding signal (z-score),[11],-0.242
same,glycan array binding signal (z-score),[12],-0.483
same,glycan array binding signal (z-score),[13],-0.269
same,glycan array binding signal (z-score),Man(a1-6)Man,-0.669
same,glycan array binding signal (z-score),Man(b1-4)GlcNAc,-0.201
same,glycan array binding signal (z-score),Neu5Ac(a2-3)Gal,-0.233
same,glycan array binding signal (z-score),[14],-0.102
same,glycan array binding signal (z-score),[15],-0.045
same,glycan array binding signal (z-score),[16],-0.173
same,glycan array binding signal (z-score),[17],0.408
same,glycan array binding signal (z-score),[18],-0.515
same,glycan array binding signal (z-score),[19],-0.561
same,glycan array binding signal (z-score),[20],0.008
same,glycan array binding signal (z-score),[21],0.536
same,glycan array binding signal (z-score),[22],-0.536
same,glycan array binding signal (z-score),[23],-0.44
same,glycan array binding signal (z-score),[24],-0.077
same,glycan array binding signal (z-score),[25],-0.207
same,glycan array binding signal (z-score),Neu5Ac(a2-3)Gal(b1-4)Glc,0.391
same,glycan array binding signal (z-score),[26],-0.104
same,glycan array binding signal (z-score),[27],0.572
same,glycan array binding signal (z-score),[28],-0.409
same,glycan array binding signal (z-score),[29],-0.502
same,glycan array binding signal (z-score),[30],-0.147
same,glycan array binding signal (z-score),[31],-0.351
same,glycan array binding signal (z-score),[32],-0.143
same,glycan array binding signal (z-score),[33],-0.507
same,glycan array binding signal (z-score),[34],2.6
same,glycan array binding signal (z-score),[35],0.17
